Measurements reported in the supplement of paper PMC8728848.
The other results are listed elsewhere or left out.

Legend:
Assay in all cases: glycan array binding signal (z-score within array); higher = stronger binding
Conditions in all cases: glycan notation: IUPAC condensed, linker removed
[1] = target: Neu5Ac(a2-3)Gal(b1-4)GlcNAc(b1-3)Gal(b1-4)GlcNAc(b1-3)Gal(b1-4)GlcNAc
Method in brief: (§1)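 Arrays were curated from the Consortium for Functional Glycomics database, 3228 in total, and kept only where the protein sequence was available. Binding is expressed as a within-array Z-score. This score was averaged across arrays of the same protein sequence at different concentrations or buffers and across linkers, and negative values can be read as non-binding.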

[2] = target: Neu5Ac(a2-3)Gal(b1-4)GlcNAc(b1-3)Gal(b1-4)[Fuc(a1-3)]GlcNAc
Method in brief: as §1

[3] = target: Neu5Ac(a2-3)Gal(b1-4)GlcNAc(b1-3)GalNAc
Method in brief: as §1

[4] = target: Neu5Ac(a2-3)Gal(b1-4)GlcNAc(b1-6)[Gal(b1-3)]GalNAc
Method in brief: as §1

[5] = target: Neu5Ac(a2-3)Gal(b1-4)GlcNAc(b1-6)[Neu5Ac(a2-3)Gal(b1-3)]GalNAc
Method in brief: as §1

[6] = target: Neu5Ac(a2-3)Gal(b1-4)GlcNAc6S
Method in brief: as §1

[7] = target: Neu5Ac(a2-3)Gal(b1-4)[Fuc(a1-3)]GlcNAc
Method in brief: as §1

[8] = target: Neu5Ac(a2-3)Gal(b1-4)[Fuc(a1-3)]GlcNAc(b1-3)Gal
Method in brief: as §1

[9] = target: Neu5Ac(a2-3)Gal(b1-4)[Fuc(a1-3)]GlcNAc(b1-3)Gal(b1-4)GlcNAc
Method in brief: as §1

[10] = target: Neu5Ac(a2-3)Gal(b1-4)[Fuc(a1-3)]GlcNAc(b1-3)Gal(b1-4)[Fuc(a1-3)]GlcNAc(b1-3)Gal(b1-4)[Fuc(a1-3)]GlcNAc
Method in brief: as §1

[11] = target: Neu5Ac(a2-3)Gal(b1-4)[Fuc(a1-3)]GlcNAc(b1-3)GalNAc
Method in brief: as §1

[12] = target: Neu5Ac(a2-3)Gal(b1-4)[Fuc(a1-3)]GlcNAc(b1-6)[Gal(b1-3)]GalNAc
Method in brief: as §1

[13] = target: Neu5Ac(a2-3)Gal(b1-4)[Fuc(a1-3)]GlcNAc(b1-6)[Neu5Ac(a2-3)Gal(b1-3)]GalNAc
Method in brief: as §1

[14] = target: Neu5Ac(a2-3)Gal(b1-4)[Fuc(a1-3)]GlcNAc6S
Method in brief: as §1

[15] = target: Neu5Ac(a2-3)Gal6S(b1-4)GlcNAc
Method in brief: as §1

[16] = target: Neu5Ac(a2-3)Gal6S(b1-4)[Fuc(a1-3)]GlcNAc
Method in brief: as §1

Neu5Ac(a2-3)GalNAc = target: Neu5Ac(a2-3)GalNAc
Method in brief: as §1

[17] = target: Neu5Ac(a2-3)GalNAc(b1-4)GlcNAc
Method in brief: as §1

[18] = target: Neu5Ac(a2-3)[GalNAc(b1-4)]Gal(b1-4)Glc
Method in brief: as §1

[19] = target: Neu5Ac(a2-3)[GalNAc(b1-4)]Gal(b1-4)GlcNAc
Method in brief: as §1

[20] = target: Neu5Ac(a2-3)[GalNAc(b1-4)]Gal(b1-4)GlcNAc(b1-3)GalNAc
Method in brief: as §1

[21] = target: Neu5Ac(a2-3)[Neu5Ac(a2-6)]GalNAc
Method in brief: as §1

Neu5Ac(a2-6)Gal = target: Neu5Ac(a2-6)Gal
Method in brief: as §1

Neu5Ac(a2-6)Gal(b1-4)Glc = target: Neu5Ac(a2-6)Gal(b1-4)Glc
Method in brief: as §1

[22] = target: Neu5Ac(a2-6)Gal(b1-4)GlcNAc
Method in brief: as §1

[23] = target: Neu5Ac(a2-6)Gal(b1-4)GlcNAc(b1-2)Man(a1-3)Man(b1-4)GlcNAc(b1-4)GlcNAc
Method in brief: as §1

[24] = target: Neu5Ac(a2-6)Gal(b1-4)GlcNAc(b1-2)Man(a1-3)[Gal(b1-4)GlcNAc(b1-2)Man(a1-6)]Man(b1-4)GlcNAc(b1-4)GlcNAc
Method in brief: as §1

[25] = target: Neu5Ac(a2-6)Gal(b1-4)GlcNAc(b1-2)Man(a1-3)[GlcNAc(b1-2)Man(a1-6)]Man(b1-4)GlcNAc(b1-4)GlcNAc
Method in brief: as §1

[26] = target: Neu5Ac(a2-6)Gal(b1-4)GlcNAc(b1-2)Man(a1-3)[GlcNAc(b1-2)Man(b1-4)GlcNAc(b1-2)Man(a1-6)]Man(b1-4)GlcNAc(b1-4)GlcNAc
Method in brief: as §1

[27] = target: Neu5Ac(a2-6)Gal(b1-4)GlcNAc(b1-2)Man(a1-3)[Man(a1-6)]Man(b1-4)GlcNAc(b1-4)GlcNAc
Method in brief: as §1

[28] = target: Neu5Ac(a2-6)Gal(b1-4)GlcNAc(b1-2)Man(a1-3)[Neu5Ac(a2-6)Gal(b1-4)GlcNAc(b1-2)Man(a1-6)]Man(b1-4)GlcNAc(b1-4)GlcNAc
Method in brief: as §1

[29] = target: Neu5Ac(a2-6)Gal(b1-4)GlcNAc(b1-2)Man(a1-6)Man(b1-4)GlcNAc(b1-4)GlcNAc
Method in brief: as §1

[30] = target: Neu5Ac(a2-6)Gal(b1-4)GlcNAc(b1-2)Man(a1-6)[Gal(b1-4)GlcNAc(b1-2)Man(a1-3)]Man(b1-4)GlcNAc(b1-4)GlcNAc
Method in brief: as §1

[31] = target: Neu5Ac(a2-6)Gal(b1-4)GlcNAc(b1-2)Man(a1-6)[GlcNAc(b1-2)Man(a1-3)]Man(b1-4)GlcNAc(b1-4)GlcNAc
Method in brief: as §1

[32] = target: Neu5Ac(a2-6)Gal(b1-4)GlcNAc(b1-2)Man(a1-6)[Man(a1-3)]Man(b1-4)GlcNAc(b1-4)GlcNAc
Method in brief: as §1

[33] = target: Neu5Ac(a2-6)Gal(b1-4)GlcNAc(b1-3)Gal(b1-3)GlcNAc
Method in brief: as §1

[34] = target: Neu5Ac(a2-6)Gal(b1-4)GlcNAc(b1-3)Gal(b1-4)GlcNAc
Method in brief: as §1

[35] = target: Neu5Ac(a2-6)Gal(b1-4)GlcNAc(b1-3)Gal(b1-4)GlcNAc(b1-3)Gal(b1-4)GlcNAc
Method in brief: as §1

[36] = target: Neu5Ac(a2-6)Gal(b1-4)GlcNAc(b1-3)Gal(b1-4)[Fuc(a1-3)]GlcNAc(b1-3)Gal(b1-4)[Fuc(a1-3)]GlcNAc
Method in brief: as §1

[37] = target: Neu5Ac(a2-6)Gal(b1-4)GlcNAc(b1-3)GalNAc
Method in brief: as §1

[38] = target: Neu5Ac(a2-6)Gal(b1-4)GlcNAc6S
Method in brief: as §1

Neu5Ac(a2-6)GalNAc = target: Neu5Ac(a2-6)GalNAc
Method in brief: as §1

[39] = target: Neu5Ac(a2-6)GalNAc(b1-4)GlcNAc
Method in brief: as §1

[40] = target: Neu5Ac(a2-6)GlcNAc(b1-4)GlcNAc
Method in brief: as §1

[41] = target: Neu5Ac(a2-6)GlcNAc(b1-4)GlcNAc(b1-4)GlcNAc
Method in brief: as §1

B1: Gal 1 (Canis lupus) (protein)
chain: MACGLVASNLSLKPGQCLRVQCEVVPEAKSFVLNLGKDGDNLCLHFNPRFEAHGDVNTIVCNSKDGGAWGEELRESAFPFQPGTVTEVCISFDQADLTIKLPDGYTFKFPNRLNLEAISYLAADGDMKIKCLAFD
glycan array binding signal (z-score) [1]: 2.07 | glycan array binding signal (z-score) [2]: -0.336 | glycan array binding signal (z-score) [3]: -0.047 | glycan array binding signal (z-score) [4]: -0.078 | glycan array binding signal (z-score) [5]: -0.299 | glycan array binding signal (z-score) [6]: 0.046 | glycan array binding signal (z-score) [7]: -0.327 | glycan array binding signal (z-score) [8]: -0.306 | glycan array binding signal (z-score) [9]: -0.302 | glycan array binding signal (z-score) [10]: -0.333 | glycan array binding signal (z-score) [11]: -0.17 | glycan array binding signal (z-score) [12]: -0.244 | glycan array binding signal (z-score) [13]: -0.283 | glycan array binding signal (z-score) [14]: -0.322 | glycan array binding signal (z-score) [15]: -0.313 | glycan array binding signal (z-score) [16]: -0.322 | glycan array binding signal (z-score) (Neu5Ac(a2-3)GalNAc): -0.293 | glycan array binding signal (z-score) [17]: -0.307 | glycan array binding signal (z-score) [18]: -0.292 | glycan array binding signal (z-score) [19]: -0.32 | glycan array binding signal (z-score) [20]: -0.316 | glycan array binding signal (z-score) [21]: -0.261 | glycan array binding signal (z-score) (Neu5Ac(a2-6)Gal): -0.257 | glycan array binding signal (z-score) (Neu5Ac(a2-6)Gal(b1-4)Glc): -0.224 | glycan array binding signal (z-score) [22]: -0.326 | glycan array binding signal (z-score) [23]: -0.311 | glycan array binding signal (z-score) [24]: 0.048 | glycan array binding signal (z-score) [25]: -0.293 | glycan array binding signal (z-score) [26]: 0.236 | glycan array binding signal (z-score) [27]: -0.306 | glycan array binding signal (z-score) [28]: -0.326 | glycan array binding signal (z-score) [29]: -0.235 | glycan array binding signal (z-score) [30]: 0.026 | glycan array binding signal (z-score) [31]: -0.301 | glycan array binding signal (z-score) [32]: -0.292 | glycan array binding signal (z-score) [33]: -0.32 | glycan array binding signal (z-score) [34]: -0.308 | glycan array binding signal (z-score) [35]: -0.309 | glycan array binding signal (z-score) [36]: -0.319 | glycan array binding signal (z-score) [37]: -0.322 | glycan array binding signal (z-score) [38]: -0.332 | glycan array binding signal (z-score) (Neu5Ac(a2-6)GalNAc): -0.344 | glycan array binding signal (z-score) [39]: -0.332 | glycan array binding signal (z-score) [40]: -0.329 | glycan array binding signal (z-score) [41]: -0.319
